The whole screen tested about 310,000 compounds, of which about 2,200 (0.71%) showed an effect of 50% or more. The effect is printed as a negative number. Some of the results follow.
Molecular target: human ether-à-go-go-related gene (hERG) potassium channel (human, UniProt Q12809)
Test: primary screen, population patch clamp on CHO cells stably expressing hERG

Sequence of human ether-à-go-go-related gene (hERG) potassium channel (Q12809 whole entry, looked up): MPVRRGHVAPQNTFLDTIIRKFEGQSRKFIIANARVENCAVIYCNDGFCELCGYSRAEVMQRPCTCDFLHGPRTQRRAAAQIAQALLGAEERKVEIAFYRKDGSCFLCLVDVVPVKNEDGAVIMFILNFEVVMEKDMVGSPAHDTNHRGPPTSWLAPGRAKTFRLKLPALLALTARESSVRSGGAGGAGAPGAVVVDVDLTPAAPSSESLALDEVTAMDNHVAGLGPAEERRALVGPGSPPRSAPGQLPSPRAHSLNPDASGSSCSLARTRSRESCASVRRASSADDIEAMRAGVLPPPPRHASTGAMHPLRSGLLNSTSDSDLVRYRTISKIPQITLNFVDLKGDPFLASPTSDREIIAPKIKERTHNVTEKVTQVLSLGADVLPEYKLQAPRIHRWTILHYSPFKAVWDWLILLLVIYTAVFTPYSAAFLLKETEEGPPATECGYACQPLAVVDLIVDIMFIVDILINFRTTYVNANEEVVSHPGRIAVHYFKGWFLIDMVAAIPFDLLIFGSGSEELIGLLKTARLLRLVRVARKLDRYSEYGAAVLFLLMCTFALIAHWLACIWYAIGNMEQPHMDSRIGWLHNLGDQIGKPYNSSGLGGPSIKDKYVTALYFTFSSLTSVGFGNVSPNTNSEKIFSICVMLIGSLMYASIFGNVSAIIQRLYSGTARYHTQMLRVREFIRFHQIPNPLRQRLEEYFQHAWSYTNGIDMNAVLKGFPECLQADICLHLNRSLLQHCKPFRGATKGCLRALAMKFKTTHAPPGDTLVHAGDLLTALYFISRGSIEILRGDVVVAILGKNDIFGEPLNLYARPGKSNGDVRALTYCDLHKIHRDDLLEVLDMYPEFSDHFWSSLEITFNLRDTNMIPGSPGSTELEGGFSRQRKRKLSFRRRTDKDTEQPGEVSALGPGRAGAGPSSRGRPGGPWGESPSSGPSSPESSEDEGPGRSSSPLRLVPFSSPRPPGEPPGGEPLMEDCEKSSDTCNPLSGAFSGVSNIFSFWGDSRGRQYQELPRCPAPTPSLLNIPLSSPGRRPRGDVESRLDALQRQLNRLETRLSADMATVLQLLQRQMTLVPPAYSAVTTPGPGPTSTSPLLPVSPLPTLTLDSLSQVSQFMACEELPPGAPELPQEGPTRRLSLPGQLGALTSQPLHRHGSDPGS

Row | Compound | hERG current change (%, negative = inhibition) at 1uM
1 | COc1ccccc1N(C)S(=O)(=O)c1ccc(C(=O)OCC(=O)N(C)c2ccccc2)cc1 | 10.4%
2 | CN(C)c1ccc(CNS(=O)(=O)c2ccc3c(c2)C(C)(C)C(=O)N3C)cc1 | 5.79%
3 | NC(=O)c1sc2nc(-c3cccs3)ccc2c1N | 11.2%
4 | O=C(NCCNc1ccc([N+](=O)[O-])cc1)c1cccc2c(Br)cccc12 | 8.49%
5 | Cc1cc(Cl)ccc1NC(=O)CN(C)C1=NS(=O)(=O)c2ccccc21 | 10.6%
6 | COc1ccc(C(=O)NNC(=O)c2ccc(S(=O)(=O)N3CCOCC3)cc2)cc1 | 11.7%
7 | Cc1cnc(C(=O)OCC(=O)Nc2ccccc2-c2ccccc2)cn1 | 10.7%
8 | Cc1cccc(CCN(CC(=O)NCc2ccc(F)cc2)C(=O)c2csnn2)c1 | 5.22%
9 | CCCCCCCCn1c(=O)c(C(=O)OC)c(N)c2ccccc21 | 9.08%
10 | CC1(C)CC(=O)C=C(NNC(=O)c2ccc(N)cc2)C1 | -0.802%
11 | Cc1nc(S(=O)(=O)N2CCN(C3c4ccccc4-c4ccccc43)CC2)cn1C | 12.2%
12 | Cc1c(C)n(CC(O)CNCCO)c2ccccc12.O=C(O)C(=O)O (centres unmarked) | 12.3%
13 | CCOc1ccc(NC(=O)C(CC)n2nc(C)c3c(C)n(-c4ccccc4)nc3c2=O)cc1 (centres unmarked) | 3.52%
14 | Cl.Fc1ccc(OCCCCN2CCOCC2)cc1 | 4.45%
15 | COc1ccccc1OCCCC(=O)Nc1ccc2c(c1)OCCO2 | 16.5%
16 | CN(C(=O)c1ccc(OC2CCN(Cc3ccccn3)CC2)cc1)C1CCCCC1 | -4.55%
17 | COc1ccc(Cl)cc1NC(=O)CCCN1C(=O)CCC1=O | 11.7%
18 | CCCOc1ccc(N2C(=O)CC(N(CCc3ccc(OC)c(OC)c3)C(=S)Nc3ccccc3)C2=O)cc1 (centres unmarked) | 11.1%
19 | COC(=O)c1ccc(C(=O)OC)c(NC(=O)COc2ccccc2OC)c1 | 7.73%
20 | Cc1sc2nc(CSCC(=O)N(C)c3ccccc3)[nH]c(=O)c2c1C | 3.66%
21 | O=C(Nc1ccc(-c2nc3ccccc3o2)cc1)c1cccnc1 | 11.4%
22 | CCN1C[C@]2(CO)CC[C@H](OC)[C@@]34C5C[C@H]6[C@H](OC)C5[C@](O)(C[C@H]6OC)[C@@](O)(C(OC)C23)[C@@H]14 (some centres unmarked) | 15%

Row | Compound | hERG current change (%, negative = inhibition) at 1uM
23 | CCOC(=O)[C@H](CCc1ccccc1)N[C@@H](C)C(=O)N1Cc2ccccc2C[C@H]1C(=O)O.Cl | 11.5%
24 | NC(=O)c1cc(-c2ccccc2)sc1NC(=O)Cc1ccc(S(=O)(=O)N2CCOCC2)s1 | 10.7%
25 | COCCn1c(SCC(=O)Nc2ccc3c(c2)OCCO3)nnc1-c1c[nH]c2ccccc12 | 6.58%
26 | CCN(CC)CCCn1c2c(c(SCC(=O)Nc3ccccc3Cl)nc1=O)CCC2 | -16.6%
27 | Cc1ccc(-c2cc(NC(=O)CSc3n[nH]c(N)n3)n(-c3ccccc3)n2)cc1 | 7.46%
28 | O=C(OCCN1C(=O)c2ccccc2C1=O)c1cccs1 | 11.9%
29 | COc1ccc(-n2nc(C(=O)NCC(=O)N3CCCCCC3)c3ccccc3c2=O)c(OC)c1 | 13.6%
30 | Clc1ccc(C2CC(c3ccco3)n3ncnc3N2)cc1Cl (centres unmarked) | 0.804%
31 | CCc1c(C)nc2ncnn2c1N1CCC(C(=O)NCc2ccc3c(c2)OCO3)CC1 | -11.4%
32 | CC(=O)Nc1cc2nn(-c3ccccc3)nc2cc1Cl | 8.74%
33 | CS(=O)(=O)N1CCN(C(=O)c2ccncc2)CC1 | 1.75%
34 | CCOc1nc(Oc2cccc(C(=O)O)c2)nc(Oc2cccc(C(=O)O)c2)n1 | 11.4%
35 | Cc1cc(NCC2CCCCC2)nc2ccccc12 | 1.9%
36 | COc1ccc(OC)c(-c2cc(C(=O)Nc3sc4c(c3C#N)CCC(C)C4)c3ccccc3n2)c1 (centres unmarked) | -5.25%
37 | N#Cc1c(Cl)nsc1NN | 18.9%
38 | Cc1cn(C2OC(COC(=O)c3ccccc3)C(OC(=O)c3ccccc3)C2OC(=O)c2ccccc2)c(=O)[nH]c1=O (centres unmarked) | 8.14%
39 | O=C(O)CC1(CC(=O)NCc2cccc(Cl)c2)CCCCC1 | 13.6%
40 | O=C1CC(N2CCN(c3ccc(F)cc3)CC2)C(=O)N1c1ccccc1 (centres unmarked) | 6.38%
41 | COC(=O)c1ccccc1NC(=O)CSc1n[nH]c(C)n1 | 7.61%
42 | Cc1cc(=O)[nH]c(SCC(=O)Nc2ccccc2C)n1 | 13.7%
43 | CC(C)Cc1nnc(NC(=O)CCc2c[nH]c3ccccc23)s1 | 7.1%
44 | CCOc1ccc(NC(=O)CN(c2cccc(C(F)(F)F)c2)S(C)(=O)=O)cc1 | -2.42%

Row | Compound | hERG current change (%, negative = inhibition) at 1uM
45 | CCN(CC)S(=O)(=O)c1ccc2oc(SCc3ccc(F)cc3)nc2c1 | -17.5%
46 | CCCCn1c(N)c(N(CCOC)C(=O)c2sc3ccccc3c2Cl)c(=O)[nH]c1=O | -4.2%
47 | CSC1=N/C(=C\c2ccc(Br)o2)C(=O)S1 | -4.11%
48 | Cc1nc2scc(-c3ccc(Cl)cc3)c2c(=O)o1 | 9.48%
49 | Cc1ccc(S(=O)(=O)N2CCn3cccc3C2C)cc1 (centres unmarked) | -2.04%
50 | O=C(Nc1ccc(NC(=O)c2cccs2)cc1)c1ccc2ccccc2c1 | 21.8%
51 | CCOC(=O)C1=C(N)N2C(=O)C(C)SC2=C(C(=O)OCC)C1c1ccc(O)cc1 (centres unmarked) | 3.63%
52 | Cc1ccc(-c2nc(-c3cccnc3)sc2CC(=O)Nc2ccc(C)c(Cl)c2)cc1 | 13.9%
53 | Cc1cc(=O)oc2cc(OCC(=O)NCc3ccccn3)ccc12 | 6.83%
54 | Cc1cc(C)cc(NC(=O)c2ccc(S(=O)(=O)C(F)F)cc2)c1 | 5.72%
55 | CC(OC(=O)c1ccccc1)C(=O)NCCC1=CCCCC1 (centres unmarked) | 10.4%
56 | COc1ccc(C)c2sc(=NC(=O)c3cccc(N4C(=O)CCC4=O)c3)n(C)c12 | 10.2%
57 | Nc1cccnc1Oc1ccc(F)cc1 | 11.4%
58 | COc1ccccc1NS(=O)(=O)c1cc(NC(=O)c2sccc2C)ccc1N1CCOCC1 | 9.43%
59 | O=C(CN1CCN(c2cccc(Cl)c2)CC1)NCc1ccccc1 | 6.36%
60 | CCCC(NC(=O)COc1cc2c(c3oc(=O)c(C)c(C)c13)CCC(C)(C)O2)C(=O)O (centres unmarked) | 9.25%
61 | CNCC(O)c1cccc(OC(=O)c2ccccc2C)c1.Cl (centres unmarked) | 4.78%
62 | CC(OC(=O)C1CCN(S(=O)(=O)c2ccc3c(c2)OCCO3)CC1)C(=O)N(C)c1ccccc1 (centres unmarked) | -6.83%
63 | O=C(Nc1ccc(NC(=O)c2ccco2)c(Cl)c1)c1cccc([N+](=O)[O-])c1 | 11.8%
64 | O=c1[nH]c2ccccc2n1CCCSc1cnc2ccccc2n1 | 10.8%
65 | Cn1c(Sc2nc3ccccc3n2C)nc2ccccc21 | 3.65%
66 | Cc1nn(Cc2c(Cl)cccc2Cl)c(C)c1NC(=O)/C=C/c1cnn(C)c1C | 11.5%

Row | Compound | hERG current change (%, negative = inhibition) at 1uM
67 | CCCNC(=O)c1nn2cc(Br)cnc2c1Cl | -27.6%
68 | CSc1nc(C)cc(Oc2ccc(=O)n(C)n2)n1 | 3.98%
69 | C/C(=N\NC(=O)c1sccc1C)c1cccnc1 | 16.4%
70 | COc1ccc(C(=O)C2CCN(C(=O)c3ccc(OC)cc3)CC2)cc1 | -76%
71 | Cc1cc(NC(=O)CSc2nc3c(sc4ccccc43)c(=O)n2CCCN2CCOCC2)n[nH]1 | 3.66%
72 | C/C(=N\NC(=O)CCC(=O)O)c1c(-c2ccccc2)c2cc(Br)ccc2[nH]c1=O | 6.2%
73 | CCC(C)Sc1nc2c(cnn2-c2ccc(C)cc2)c(=O)[nH]1 (centres unmarked) | 10.5%
74 | COc1cc2c(cc1OC)CN(CC(=O)Nc1ccc3c(c1)OC(F)(F)O3)CC2 | 7.61%
75 | CC1(C)CC(=O)C2=C(C1)Nc1ccccc1NC2c1ccccn1 (centres unmarked) | 8.37%
76 | COc1ccc(NS(=O)(=O)c2ccc(NS(=O)(=O)c3cccs3)cc2)c(OC)c1 | 7.26%
77 | Cc1ccc(S(=O)(=O)NCCC(=O)NCC(=O)Nc2c(C)cccc2C)cc1C | -5.09%
78 | O=C(Nc1cccc(-n2cnnn2)c1)c1ccncc1 | 9.42%
79 | C[C@H](NC(=O)c1nc[nH]c1C(=O)NCC(=O)OC(C)(C)C)C(=O)OCc1ccccc1 | 2.4%
80 | Clc1ccccc1C1Nc2cccc3cccc(c23)N1 | 7.9%
81 | C/C(=N\NC(=O)CCCNc1ccccc1)c1ccncc1 | 17.2%
82 | CC(C)(C)[C@H]1C=C(C(=O)NCc2ccccc2)O[C@@H](OCc2ccc(CO)cc2)C1 | 6.77%
83 | CC1(C)Cc2ccccc2-c2nc(CN3CCOCC3)[nH]c(=O)c21 | 4.9%
84 | COCCSc1ccccc1C(=O)Nc1cc(C)cc(C)c1 | 7.25%
85 | COc1cccc(CNC(=O)CSc2nnc3c(n2)[nH]c2ccc(C)cc23)c1 | 0.23%
86 | CCOC(=O)CSC1=C(C#N)C(c2ccc(OC)cc2)C2=C(CC(C)(C)CC2=O)N1 (centres unmarked) | -3.69%

Reference: publication PMC4336329 (PLoS ONE, 2015)
